Experimental findings from PubChem BioAssay AID1645887 (National Center for Advancing Translational Sciences (NCATS), 2021) are described below.

“And” between values parts separate entries of the source, which are not always exact repeats. Identical values can stand only once. Among all 16,000 compounds or so, about 40 (0.2%) were called active. Not shown: some 1% with an inconclusive outcome. Calls follow the shape of the dose curve; as a rule, active = well fitted activation curve with a large enough effect; inconclusive = small, poorly fitted or top-dose-only effect, or another doubt; inactive = no such curve, though single readings can be large or run the other way. The list shows a part of the results. Starred links: 1 amine or outer side, 2 acyl side, 3 side chain; linkers in the order of their positions; H or OH if unused. Positions of bridges follow the written chain, without caps; N, C: chain ends. Non-standard residues stand in square brackets, D forms with d. Residues, ends and D or L forms follow the SMILES beside them. *: point of attachment. X6 = NC1=N[C@@H](O)C[C@H]([C@H](N[*:1])C(=O)[*:2])N1; ΔAla(3-NHCONH2) = NC(=O)NC=C(N)C(=O)O; β3hOrn = NCCC[C@H](N)CC(=O)*; Dap = NC[C@H](N)C(=O)O
% is scaled to controls: 0 for no effect and ±100 for the full control effect.

Chain of UniProt Q8WZA2 (Q8WZA2 whole entry, looked up): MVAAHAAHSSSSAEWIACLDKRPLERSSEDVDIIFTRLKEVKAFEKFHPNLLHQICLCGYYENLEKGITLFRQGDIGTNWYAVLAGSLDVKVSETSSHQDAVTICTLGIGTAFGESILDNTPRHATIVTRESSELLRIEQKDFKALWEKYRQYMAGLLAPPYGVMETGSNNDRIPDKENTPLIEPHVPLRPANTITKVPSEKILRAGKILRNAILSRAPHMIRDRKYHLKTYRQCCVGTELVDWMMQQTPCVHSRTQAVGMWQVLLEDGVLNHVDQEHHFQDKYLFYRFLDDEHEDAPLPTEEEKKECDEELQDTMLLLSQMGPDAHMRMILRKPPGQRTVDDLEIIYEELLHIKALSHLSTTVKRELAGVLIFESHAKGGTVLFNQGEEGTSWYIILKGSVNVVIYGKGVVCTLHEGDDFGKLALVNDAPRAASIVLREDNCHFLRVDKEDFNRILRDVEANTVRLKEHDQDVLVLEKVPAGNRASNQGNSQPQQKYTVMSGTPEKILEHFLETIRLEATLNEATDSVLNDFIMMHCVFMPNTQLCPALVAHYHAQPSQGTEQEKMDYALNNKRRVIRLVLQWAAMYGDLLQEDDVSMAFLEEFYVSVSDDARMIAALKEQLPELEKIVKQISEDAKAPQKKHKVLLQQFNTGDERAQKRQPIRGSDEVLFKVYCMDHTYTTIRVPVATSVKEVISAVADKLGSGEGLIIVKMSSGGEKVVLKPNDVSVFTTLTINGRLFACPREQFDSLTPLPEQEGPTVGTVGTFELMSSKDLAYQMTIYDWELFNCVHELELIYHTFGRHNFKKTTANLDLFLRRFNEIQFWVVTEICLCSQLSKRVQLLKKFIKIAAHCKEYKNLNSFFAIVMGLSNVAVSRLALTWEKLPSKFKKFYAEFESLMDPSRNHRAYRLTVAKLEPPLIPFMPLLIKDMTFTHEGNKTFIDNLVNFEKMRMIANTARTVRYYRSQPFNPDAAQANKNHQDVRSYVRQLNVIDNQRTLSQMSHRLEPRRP

The experiment has as its target Rap guanine nucleotide exchange factor 4 (Homo sapiens) (UniProt Q8WZA2). The experiment is described as follows: Validation qHTS for agonist of cAMP-regulated guanine nucleotide exchange factor 4 (EPAC2).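 Also: exchange makes BODIPY-GDP fluorescence drop when released from Rap1B; series mostly up to about 150 µM.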 As to conditions: EPAC2 Rap1B BODIPY-GDP exchange, fluorescence; activation: stronger effect = higher value. The method in brief:
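Fluorescent exchange assay: 100 nM EPAC2 with 250 nM RAP1B-BODIPY-GDP and 50 uM GDP; compound added, 5 min at room temperature, then read (ex 480/em 540 nm) every 5 min for 30 min. Normalized to 6.5 mM cAMP agonist control.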
Background: In qHTS, concentration-response curves come from the screen itself.
As to `CS(=O)(=O)c1ccc(Cn2c3c(c4cc(F)cc(F)c42)CCC[C@H]3CC(=O)O)cc1`, the activation is inactive: -41.2%.

Turning to `CCCCC(C)(C)[C@H](O)/C=C/[C@H]1[C@H](O)CC(=O)[C@@H]1C/C=C\CCCC(=O)O`, the activation is inactive: -3.39%.

On to `Clc1nccc2c1ccc1ccccc12`, for which the activation is inactive: -33.9%.

Consider `O=C(O)COC(=O)Cc1ccccc1Nc1c(Cl)cccc1Cl`, for which the activation was inactive: 7.38%.

Turning to `CC1(O)CC2C(CC1O)C2(C)C` (configuration not stated), the activation is inactive: -25.3%.

Regarding `CN(C)c1ncnc2ccc(-c3ccccc3C#N)cc12`, the activation was inactive: -12.6%.

For the compound `C=C1C[C@@]23C[C@@]1(O)CCC2[C@@]12C=CC(O)[C@](C)(C(=O)O1)C2C3C(=O)O` (some centres not stated), the activation was inactive: 0.87%.

For `CN1CCN(c2ncc3ncc(=O)n(-c4ccccc4)c3n2)CC1`, the activation is inactive: -14.2%.

Take `COc1ccc(CN2CC[C@H]3C=CC[C@@H](C(=O)NCc4cccnc4)[C@H]3C2=O)cc1OC`: the activation was inactive: -8.28%.

On to `COc1ccc(CNc2cc(-c3cccc(C#N)c3)ncn2)c(OC)c1`, for which the activation is inactive: -0.0778%.

In the case of `Cc1ccc(-c2ccnc(-n3ncc(C(=O)N4CCCCC4c4cccnc4)c3C3CC3)n2)o1` (configuration not stated), the activation is inactive: -14%.

`C=C1/C(=C\C=C2/CCC[C@]3(C)C([C@H](C)CCCC(C)(C)O)CC[C@@H]23)C[C@@H](O)C[C@@H]1O` (some centres not stated): the activation is inactive: -11.3%.

As for `CCC1CN(CCNC(=O)c2cccnc2OC)Cc2cc(OC)ccc2O1` (configuration not stated), the activation is inactive: 4.04%.

In the case of `O=C(Nc1ccccc1)N1CCCC2(CCN(C(=O)c3cc(C(F)(F)F)cc(C(F)(F)F)c3)CC2)C1`, the activation is inactive: -8.55%.

For the compound `CN(C)c1ccc(/C=C2/C(=O)Nc3ccccc32)cc1`, the activation was inactive: -1.78%.

For `COc1cc(=O)n2c(c1C(=O)NC(C)c1ccco1)CCN(C(=O)c1ccccc1SC)CC2` (configuration not stated), the activation is inactive: -1.68%.

On to `Clc1ccccc1-c1cc(NCCN2CCOCC2)ncn1`, for which the activation was inactive: -10.3%.

`O=C(C[N+]12CN3CN(CN(C3)C1)C2)c1ccc(I)cc1`: the activation was inactive: -16%.

On to `COC(=O)C1=COC(O[C@H]2OC(CO)[C@H](O)C(O)C2O)[C@H]2C1C(=O)C[C@@H]2C` (some centres not stated), for which the activation is inactive: -16.7%.

On to `N=C(N)S/C=C\C(=O)O`, for which the activation is inactive: 4.59% and inactive: -6.71%.

With `Cc1nnc(NS(=O)(=O)c2ccc(N)cc2)s1`, the activation is inactive: -17% and inactive: 9.87%.

As to `COc1ccc2c(c1)CCc1cnc(-n3ncc(C(=O)NC4CCOC4)c3C3CC3)nc1-2` (configuration not stated), the activation is inactive: -30.7%.

`COc1ccccc1-c1ccnc(-n2ncc(C(=O)N(C)C(C)c3nc(C)cs3)c2C2CC2)n1` (configuration not stated): the activation was inactive: 0.901%.

`COc1ccccc1-c1cncnc1N(C)Cc1ccco1`: the activation was inactive: 7.97%.

Consider `C#CCCCCCCCCCCCc1ccco1`, for which the activation is inactive: -27.6%.

With `CCN1CCN(c2cc3c(cc2F)c(=O)c(C(=O)O)cn3C2CC2)CC1`, the activation was inactive: -15.4%.

Turning to `CC(NC(=O)c1cc(F)ccc1F)c1nnc2n1CCN(Cc1ccco1)CC2` (configuration not stated), the activation was inactive: -4.98%.

Take `O=C1C2CC3CC1CC(O)(C3)C2`: the activation was inactive: -5.01%.

In the case of `O=[n+]1ccn([O-])c2ccccc21`, the activation is inactive: -14.1%.

`CS(=O)(=O)N1CCC2(CCCN(C(c3ccccc3)c3ccccc3)C2)CC1`: the activation is inactive: -3.38%.

For `COc1ccc2ccccc2c1CN1CCOc2ccc(CN3CCN(CCO)CC3)cc2C1`, the activation was inactive: -2.86%.

With `CS(=O)(=O)Nc1cccc(-c2nccc(NCc3cccs3)n2)c1`, the activation is inactive: -9.6%.

As for `COc1cc(NS(C)(=O)=O)ccc1Nc1c2ccccc2nc2ccccc12`, the activation is inactive: -1.52% and inactive: -18.7%.

In the case of `CN1c2c(nc(N)[nH]c2=O)NCC1CNc1ccc(C(=O)NC(CCC(=O)O)C(=O)O)cc1` (configuration not stated), the activation was inactive: 9.21%.

In the case of `CCN1CCC[C@H]1CNC(=O)c1c(OC)ccc(Br)c1OC`, the activation was inactive: 5.37% and inactive: -14.8%.

`O=C(C[N+]12CCCc3cccc(c31)CCC2)c1ccc2ccccc2c1`: the activation was inactive: -9.64%.

In the case of `COc1ccc(-c2nc3cnc(N4CCOCC4)nc3n(C)c2=O)cc1`, the activation was inactive: -3.01%.

Regarding `COc1ccc(-c2[nH]ncc2CN2CCOc3c(cc(-c4cccc(OC)n4)cc3OC)C2)cc1`, the activation is inactive: 8.86%.

With `COc1ccc2c(OC)c3ccoc3nc2c1OC`, the activation was inactive: -2.4%.

Regarding `CCCc1nc2cccnc2n1C1CCN(C(=O)CC2NC(=O)c3ccccc32)CC1` (configuration not stated), the activation was inactive: 5.36%.

As for `CC(C)(C)CC(C)(C)N=C1Nc2cc(Cl)c(Cl)cc2N[C@]12C[C@H]1CCCC(=O)N3CC[C@@H](C2)[C@@H]13`, the activation is inactive: -14.6%.

For `C=CCN(C(C(=O)OC)C(C)C)S(=O)(=O)CCNCc1ccccc1` (configuration not stated), the activation is inactive: -10.1%.

With `O=C(NCCc1c[nH]c2ccccc12)c1cccnc1`, the activation was inactive: 0.38%.

Regarding `C1CCN2C[C@@H]3C[C@@H](CN4CCCC[C@@H]34)[C@H]2C1`, the activation was inactive: -16.3% and inactive: -13.6%.

With `CN(Cc1ccc2c(c1)CN(C(=O)c1cccc(N(C)C)c1)CCO2)Cc1cc(C2CC2)n[nH]1`, the activation was inactive: -16.7%.

Turning to `O=S(=O)(c1ccccc1)N1CCC2(CCCN(Cc3cc(C(F)(F)F)cc(C(F)(F)F)c3)C2)CC1`, the activation is inactive: -2.81%.

With `O=C(O)C[C@H]1c2ccc(C(F)(F)F)cc2S(=O)(=O)N1C1CCCCC1`, the activation was inactive: -19.6%.

As to `C=CCCCCCCCCCCC/C=C/C(O)COC(C)=O` (configuration not stated), the activation was inactive: -44%.

With `CCCCCCCCCCCCN1[C@@H](CC(=O)OC)c2cc(C(F)(F)F)ccc2S1(=O)=O`, the activation is inactive: -35.8%.

Consider `CCCCCCCC/C=C/CCCCCCCCOP(=O)([O-])OCC[N+](C)(C)C`, for which the activation was inactive: -32.5%.

Consider `CC(=O)OCC(OC(C)=O)C(OC(C)=O)C(OC(C)=O)C(OC(C)=O)C(COC(C)=O)OC(C)=O` (configuration not stated), for which the activation is inactive: -21.2%.

`FC(F)(F)c1ccccc1-c1nccc(NCc2cccs2)n1`: the activation was inactive: -21.3%.

As for `CC1CC(OC(=O)C(O)c2ccccc2)CC(C)(C)N1C` (configuration not stated), the activation is inactive: -19.3% and inactive: 0.128%.

Take `OC[C@H]1O[C@@H](n2cnc3c(NCc4ccco4)ncnc32)[C@H](O)[C@@H]1O`: the activation was inactive: -5.18% and inactive: -17.5%.

With `CC(C)CCOC(=O)c1ccc(N(C)C)cc1`, the activation was inactive: -14.6%.

Turning to `COCC(=O)Nc1cc(C(=O)N2CCc3c([nH]c4ccccc34)C2)cc2nc(-c3ccccc3)n(C)c12`, the activation was inactive: -3.22%.

`COCC(=O)N1CCC2(CCCN(Cc3ccccc3)C2)CC1`: the activation was inactive: -23.7%.

`N[C@@]1(C(=O)O)CN[C@H](C(=O)O)C1`: the activation was inactive: -5.91%.

As to `CCN1CCN(C(=O)N[C@@H](C(=O)N[C@@H]2C(=O)N3C(C(=O)O)=C(CSc4nnnn4C)CS[C@H]23)c2ccc(O)cc2)C(=O)C1=O`, the activation is inactive: 8.68%.

For `CN(C)CCOc1ccc(/C(=C(/CCCl)c2ccccc2)c2ccccc2)cc1`, the activation is inactive: -19.2%.

In the case of `COCCn1c(=O)c(-c2cccs2)nc2cnc(N3CCOCC3)nc21`, the activation is inactive: 8.58%.

`COC(=O)C1=C(C)NC(C)=C(C(=O)OCCCN2CCC(c3ccccc3)(c3ccccc3)CC2)[C@H]1c1cccc([N+](=O)[O-])c1`: the activation is inactive: -14.3% and inactive: -25.8%.

For the compound `Cc1ccc(Cl)c(Nc2ccccc2C(=O)O)c1Cl`, the activation is inactive: -14.4% and inactive: -5.8% and inactive: 7.96%.

Regarding `COc1ccc(OC)c(C(=O)N2CCc3c(cnc(C)c3CNS(=O)(=O)N(C)C)C2)c1`, the activation was inactive: -13.4%.

For the compound `Cn1cccc1C(=O)N1CCC[C@@]2(CCN(C(c3ccccc3)c3ccccc3)C2)C1`, the activation was inactive: 4.18%.

`CC(C)C[C@@H](CO)N1CCN(Cc2ccccc2)CCC1=O`: the activation is inactive: -28.5% and inactive: -16%.

Turning to `O=C(NCCO[N+](=O)[O-])c1cccnc1`, the activation is inactive: -14.8%.

Consider `COc1cc(-c2noc(C)c2/C=C/c2ccc(N)cc2)cc(OC)c1OC`, for which the activation was inactive: -21.9%.

Take `CN1CCCN(C(=O)[C@@H]2C[C@@H](Sc3nc4ccccc4[nH]3)CN2Cc2ccc(OC(F)(F)F)cc2)CC1`: the activation was inactive: -24.9%.

With `COc1ccc(C(=O)N2CCC[C@@]3(CCN(C)C3)C2)cc1`, the activation is inactive: -8.25%.

On to `C#C[C@@]1(O)CCC2C3CCc4cc(O)ccc4C3CC[C@@]21C` (some centres not stated), for which the activation is inactive: -13.8%.

Consider `Cc1c(C(=O)N2CCCC(C)C2)sc2ncnc(NCCN3CCCCC3)c12` (configuration not stated), for which the activation is inactive: -10.9%.

`N[C@]1(C(=O)O)CCc2cc(C(=O)O)ccc21`: the activation was inactive: -10.5%.

For the compound `CO[C@@]12[C@H](COC(N)=O)C3=C(C(=O)C(C)=C(N)C3=O)N1C[C@@H]1N[C@@H]12`, the activation is inactive: -15.6%.

On to `CC(C(=O)O)c1ccc(N2Cc3ccccc3C2=O)cc1` (configuration not stated), for which the activation is inactive: -2.3%.

`NCCC[C@H](N)CC(=O)N[C@H]1CNC(=O)[C@H]([C@H]2C[C@H](O)N=C(N)N2)NC(=O)C(=CNC(N)=O)NC(=O)[C@H](CO)NC(=O)[C@H](CO)NC1=O` (β3hOrn-[Dap]SS[ΔAla(3-NHCONH2)][X6]; lactam 1-C): the activation is inactive: -11.7%.

For the compound `COc1ccccc1CCn1c(=O)c(-c2cn(C)c3ccccc23)nc2cncnc21`, the activation was inactive: -7.24%.

Consider `O=C(c1ccccc1)C(c1ccccc1)[n+]1csc2ccccc21` (configuration not stated), for which the activation is inactive: -10.4%.

Regarding `COC(=O)[C@H](CC(C)C)NS(=O)(=O)N(Cc1ccccc1)[C@@H](CC(C)C)C(=O)OC`, the activation was inactive: -36.5%.

For `CC(NN)c1ccccc1` (configuration not stated), the activation is inactive: -23.2%.

`COC(=O)[C@H]1Cc2c([nH]c3ccccc23)CN1C(=O)COc1ccc2c(C)cc(=O)oc2c1`: the activation is inactive: -15.4%.

Consider `COC(=O)c1cn([C@@H]2C[C@@H](C(=O)N3CCCCCC3)N(Cc3cc4ccccc4s3)C2)nn1`, for which the activation was inactive: -9.69%.
